# Values joined by “and” are separate entries in the source; they are usually repeats but may differ in a detail not shown here. Equal entries are not always repeated. Hit rate of the full screen: of about 350,000 compounds, about 9,900 (2.8%) were called active. The inconclusive results got no clear call from the source; some entries with a clear call stand among them for comparison. Calls follow the shape of the dose curve; as a rule, active = well fitted activation curve with a large enough effect; inconclusive = small, poorly fitted or top-dose-only effect; inactive = no such curve, though single readings can be large or run the other way. No potency is given beside an inconclusive call; the fits are too rough. More than one record can exist for a structure, and the calls need not agree.
# Test: A quantitative high throughput screen for small molecules that induce DNA re-replication in MCF 10a normal breast cells. Also: nearly all actives have a fitted effect of over 50% in size. As to activity, positive = re-replication: % of control where 0% means no effect.
# Conditions: MCF 10A DNA re-replication, Hoechst nuclear intensity, 48 h; activity, positive = re-replication: at 46.1 µM (top of the series)
# Potency is read from the fitted curve at half-maximal effect; tags tell the direction and shape of the fitted curve.
SMILES,Potency,"activity, positive = re-replication"
COc1ccc2c(c1)CCc1c(C(=O)N3CCc4ccccc4C3)noc1-2,"inconclusive [activator, single point]",
CSCCCNC(=S)N1CCN(S(=O)(=O)c2cccc(C(F)(F)F)c2)CC1,inactive,
CCCCC(=NCCc1c(C)[nH]c2ccccc12)C1=C(O)CC(c2ccccc2)CC1=O (configuration not stated),active: 8.2 µM,
O=C(CN1C(=O)CCC1=O)Nc1nc(-c2ccc(Cl)s2)cs1,inactive and active: 20.6 µM,
Cn1c(=O)c2c(ncn2Cc2ccc(Cl)c(Cl)c2)n(C)c1=O,inactive,
FC(F)C(F)(F)C(F)(F)C(F)(F)c1cc(-c2ccccc2)n[nH]1,"inconclusive [activator, single point]",
Cc1nnc(NCc2ccco2)c2ccccc12,inactive,
Cc1ccc(/C=C/c2nc3ccccc3[nH]2)o1,"inconclusive [activator, single point]",
COCCn1c(C)cc(C(=O)COc2cccnc2[N+](=O)[O-])c1C,"inconclusive [activator, single point]",
CCN1CCN(CCC(=O)Nc2ccc(Br)c(C)c2)CC1,"inconclusive [activator, partial curve, poor fit]",
O/N=C(/c1ccccc1)c1cc2cc(Br)cc(Br)c2o1,"inconclusive [activator, single point]",
CCN(Cc1ccccc1)S(=O)(=O)c1ccc(C(=O)N2CCN(c3nc4ccccc4s3)CC2)cc1,"inconclusive [activator, full curve]",
COc1cccc(NC(=O)CCc2nnc3ccc(N4CCN(c5cccc(OC)c5)CC4)nn23)c1,"inconclusive [activator, partial curve, poor fit]",
CC1CCN(C2=C(NS(=O)(=O)c3ccccc3)C(=O)c3ccccc3C2=O)CC1,"inconclusive [activator, single point]",
Cc1ccc(CNC(=O)CSc2nc3ccsc3c(=O)n2Cc2ccc(C(=O)O)cc2)cc1,active: 0.651 µM,
Cc1ccc2cc(CN(Cc3ccco3)S(=O)(=O)c3c(C)ccc4nsnc34)c(=O)[nH]c2c1,"inconclusive [activator, partial curve, poor fit]",
Cc1cccc2sc(NC(=O)C3c4ccccc4Oc4ccccc43)nc12,active: 6.51 µM,
O=C(N/N=C/c1sc(=O)n(-c2ccccc2)c1Cl)c1ccccc1,"inconclusive [activator, partial curve, poor fit]",
COc1ccc(-c2ccc(OC)cc2)cc1,inactive,
O=C1NC2(CCCCCC2)N=C1c1ccc(F)cc1,inactive,
CN(C)CCCNC(=O)C[C@H]1C[C@H](C(=O)N2CCCCC2)[C@@]2(CCc3ccccc3)c3[nH]c4cc(-c5ccco5)ccc4c3CCN2C1=O,"inconclusive [activator, single point]",
Clc1ccc(-n2nnnc2SCc2c(-c3ccccc3)nc3sccn23)cc1,inactive,
Cc1ccc(-c2nc(C(F)(F)F)cc(=O)[nH]2)cc1,"inconclusive [activator, partial curve, poor fit]",

SMILES,Potency,"activity, positive = re-replication"
FC(F)(F)c1cc(-c2ccccc2)nc(NCc2cccnc2)n1,"inconclusive [activator, single point]",
NC(=O)CN1N=C(c2cc(Cl)sc2Cl)CSC1=O,inactive,
O=C(NNC(=O)c1ccc(Cl)c(Cl)c1)c1ccncc1,inactive,
CNC(=O)CN(c1ccc(F)cc1)S(=O)(=O)c1cc(C)ccc1OC,inactive,
O=C(N/N=C\c1cccc(Cl)c1)c1ccc(Cn2cc(Br)c([N+](=O)[O-])n2)o1,"inconclusive [activator, single point]",
O=C(O)c1ccc(NC2=C/C(=N/S(=O)(=O)c3ccccc3)c3ccccc3C2=O)cc1,"inconclusive [activator, partial curve, poor fit]",
Cc1ccc(Cn2c(=S)[nH]c3ccc(N4CCOCC4)cc3c2=O)o1,"inconclusive [activator, single point]",
Cc1cccc(Cc2c(C)nc3nc(SCC(=O)NCc4ccco4)nn3c2C)c1,inactive,
Cc1ccc(/C=C2\Sc3ccccc3C2=O)s1,active: 23.1 µM,
O=C(NC1CCCCC1)c1ccc(-c2ccc(Cl)cc2)o1,"inconclusive [activator, single point]",
O=C(O)c1cc(N/N=C2/CC(c3ccccc3)Oc3ccccc32)ccc1Cl (configuration not stated),"inconclusive [activator, partial curve, poor fit]",
COc1cc(CNCc2ccccn2)ccc1OCc1ccccc1Cl,"inconclusive [activator, single point]",
COCCn1c(SCC(=O)c2ccc(Cl)cc2)nnc1C(C)C,"inconclusive [activator, single point]",
S=C(NCc1cccs1)Nc1cccc(Cl)c1Cl,inactive,
CCOc1ccc(OCCC(=O)N2CCN(S(=O)(=O)c3ccc(OCC)cc3)CC2)cc1,"inconclusive [activator, full curve, poor fit]",
CCCCNCC1C(Oc2ccc(Cl)cc2)C(=O)N1c1ccccc1C (configuration not stated),"inconclusive [activator, partial curve, poor fit]",
CCc1ncc(C(=O)c2ccc(OC)cc2)n1C,,inconclusive: 36.3% [activator]
Nc1c(C(=O)OCC(=O)Nc2ccc(Cl)cc2[N+](=O)[O-])[nH]c(=O)[nH]c1=O,active: 23.1 µM,
O=C(Nc1nc2ccccc2n1CCN1CCOCC1)c1ccc(Cl)cc1,"inconclusive [activator, single point]",
CCn1c(C)c(C)c2cc(C(=O)N3CCc4ccccc4C3)ccc21,active: 3.66 µM,
Cc1ccc(S(=O)(=O)NCCC(=O)NCCCSc2ccccc2)cc1,"inconclusive [activator, partial curve, poor fit]",
CSc1nsc(SCC(=O)Nc2nc3ccccc3s2)n1,"inconclusive [activator, single point]",
Cc1ccc(-c2nc(=S)c3c(n2Cc2ccco2)CC(C)(C)OC3)cc1,"inconclusive [activator, single point]",

SMILES,Potency,"activity, positive = re-replication"
O=C(Nc1ccc(Cl)c(S(=O)(=O)N2CCCC2)c1)c1nn(CCO)c(=O)c2ccccc12,"inconclusive [activator, partial curve, poor fit]",
Cc1ccc(-c2ccc(/C=N\NC(=O)c3cc4c(ccc5ccccc54)o3)o2)cc1[N+](=O)[O-],active: 7.31 µM,
Cc1ccc(S(=O)(=O)N2CCCN(C)CC2)cc1,"inconclusive [activator, partial curve, poor fit]",
Cc1ccc(CNC(=O)c2c(-c3ccccc3Cl)noc2C)cc1,"inconclusive [activator, partial curve, poor fit]",
COc1ccc(-c2nc(CN3CCCCC3CCc3ccccn3)c(C)o2)cc1 (configuration not stated),"inconclusive [activator, single point]",
CCC(C)NC(=O)CCS(=O)(=O)c1ccc2c(c1)n(C)c(=O)c(=O)n2C (configuration not stated),"inconclusive [activator, single point]",
CCCc1cc(C(=O)Cc2ccc(C(=O)OCC)o2)c(O)cc1O,"inconclusive [activator, single point]",
O=C(NCCCN1CCCC1=O)c1ccc(NS(=O)(=O)c2cccc([N+](=O)[O-])c2)cc1,inactive,
COc1ccc(S(=O)(=O)NCCc2c[nH]c3ccc(Cl)cc23)cc1,"inconclusive [activator, partial curve, poor fit]",
O=C(c1ccc(F)cc1)C1CCN(CCn2c(=S)[nH]c3ccccc3c2=O)CC1,"inconclusive [activator, single point]",
O=C(O)c1cnn(-c2nc(-c3cccc(F)c3)cs2)c1C(F)(F)F,"inconclusive [activator, partial curve, poor fit]",
Cc1onc(-c2ccc(Cl)cc2)c1-c1ccnc(SCC(=O)Nc2ccc(C(C)C)cc2)n1,"inconclusive [activator, partial curve]",
Cc1cc(C)c(NC(=O)COc2ccccc2C(=O)Nc2ccc3c(c2)oc2ccccc23)c(C)c1,"inconclusive [activator, single point]",
Cc1ccc(-c2csc3ncnc(N4CCN(S(=O)(=O)c5cccs5)CC4)c23)cc1,"inconclusive [activator, single point]",
O=C(NCc1ccccc1)NC1CCCCC1,inactive,
O=C(N/N=C/c1cc([N+](=O)[O-])ccc1O)c1cccc2cc[nH]c12,"inconclusive [activator, full curve, poor fit]",
COc1ccc(CC(=O)Nc2ccc(-c3cn4ccccc4n3)cc2)cc1,inactive,
Cc1ccc(S(=O)(=O)CCC(=O)Nc2nnc(-c3cccs3)o2)cc1,"inconclusive [activator, single point]",
O=C(c1cccc(F)c1)N1CCN(C(=O)c2cc(-c3ccc(Cl)cc3Cl)on2)CC1,"inconclusive [activator, single point]",
COc1ccc(C2CC(c3cccs3)=NN2c2ccccc2)cc1 (configuration not stated),"inconclusive [activator, full curve, poor fit]",
CCOC(=O)CSc1nc(NC#N)nc(N(CC)CC)n1,"inconclusive [activator, partial curve, poor fit]",
